Test results reported in the supplement of paper PMC10369915.
Some of the results follow. Cut-off read from the data, not from the text of the source: active = 3.2 or more and inactive = the rest. The signal is at background level for most entries.

Legend:
Experiment in all cases: enrichment score (SH2-bound / input frequency) (ratio); bacterial display of known human phosphotyrosine sites (pTyr-Var adds point mutants) read by sequencing; higher = stronger binding; tyrosines were phosphorylated by kinases first
Settings in all cases: peptide library: pTyr-Var
SHP2 C-SH2 domain E139D = target: SHP2 C-SH2 domain E139D
[1] = target: SHP2 C-SH2 domain wild-type
SHP2 N-SH2 domain L43F = target: SHP2 N-SH2 domain L43F
SHP2 N-SH2 domain T42A = target: SHP2 N-SH2 domain T42A
SHP2 N-SH2 domain T52S = target: SHP2 N-SH2 domain T52S
[2] = target: SHP2 N-SH2 domain wild-type

Measured: enrichment score
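Note: displayed peptides selected on beads carrying the immobilized SH2 domain, with library peptides lacking any tyrosine serving as negative controls.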

B1: ACE_Y151_A154T (peptide)
chain: NMSRIYSTTKV
inactive: SHP2 C-SH2 domain E139D 0.772 | [1] 0.822 | SHP2 N-SH2 domain L43F 0.573 | SHP2 N-SH2 domain T42A 0.497 | SHP2 N-SH2 domain T52S 0.578 | [2] 0.866

B2: ACAD9_Y611 (peptide)
chain: LEKRAYICAHP
inactive: SHP2 C-SH2 domain E139D 0.7 | [1] 0.977 | SHP2 N-SH2 domain L43F 0.922 | SHP2 N-SH2 domain T42A 0.757 | SHP2 N-SH2 domain T52S 0.627 | [2] 1.23

B3: ABL2_Y80 (peptide)
chain: ALHRPYGCDVE
inactive: SHP2 C-SH2 domain E139D 0.897 | [1] 0.805 | SHP2 N-SH2 domain L43F 0.642 | SHP2 N-SH2 domain T42A 0.768 | SHP2 N-SH2 domain T52S 0.774 | [2] 0.845

B4: ACADM_Y353 (peptide)
chain: RRNTYYASIAK
inactive: SHP2 C-SH2 domain E139D 0.308 | [1] 0.253 | SHP2 N-SH2 domain L43F 0.234 | SHP2 N-SH2 domain T42A 0.0696 | SHP2 N-SH2 domain T52S 0.0731 | [2] 0.194

B5: ABCD1_Y181_Q178E (peptide)
chain: SQETYYRVSNM
inactive: SHP2 C-SH2 domain E139D 0.822 | [1] 1.05 | SHP2 N-SH2 domain L43F 0.912 | SHP2 N-SH2 domain T42A 0.675 | SHP2 N-SH2 domain T52S 0.932 | [2] 1.13

B6: ACSBG1_Y677 (peptide)
chain: AAARPYHIQKW
inactive: SHP2 C-SH2 domain E139D 1.55 | [1] 1.29 | SHP2 N-SH2 domain L43F 1.31 | SHP2 N-SH2 domain T42A 1.32 | SHP2 N-SH2 domain T52S 1.5 | [2] 1.16

B7: ABCD1_Y181_R182P_YF (peptide)
chain: SQQTFYPVSNM
inactive: SHP2 C-SH2 domain E139D 0.968 | [1] 0.813 | SHP2 N-SH2 domain L43F 0.716 | SHP2 N-SH2 domain T42A 0.875 | SHP2 N-SH2 domain T52S 0.769 | [2] 0.847

B8: ACADSB_Y372_E376G_YF (peptide)
chain: ASMAKYFASGI
inactive: SHP2 C-SH2 domain E139D 0.663 | [1] 0.632 | SHP2 N-SH2 domain L43F 0.634 | SHP2 N-SH2 domain T42A 0.666 | SHP2 N-SH2 domain T52S 0.646 | [2] 0.692

B9: ACP1_Y133 (peptide)
chain: IEDPYYGNDSD
inactive: SHP2 C-SH2 domain E139D 0.439 | [1] 0.558 | SHP2 N-SH2 domain L43F 0.523 | SHP2 N-SH2 domain T42A 0.591 | SHP2 N-SH2 domain T52S 0.562 | [2] 0.564

B10: ACADM_Y73_I78T (peptide)
chain: DKTGEYPVPLT
inactive: SHP2 C-SH2 domain E139D 0.605 | [1] 0.502 | SHP2 N-SH2 domain L43F 0.607 | SHP2 N-SH2 domain T42A 0.734 | SHP2 N-SH2 domain T52S 0.689 | [2] 0.715

B11: ACSF3_Y355_E359K (peptide)
chain: TLLERYGMTKI
inactive: SHP2 C-SH2 domain E139D 1.21 | [1] 0.857 | SHP2 N-SH2 domain L43F 0.805 | SHP2 N-SH2 domain T42A 0.783 | SHP2 N-SH2 domain T52S 0.812 | [2] 1.01

B12: ABCD1_Y181_Q178E_YF (peptide)
chain: SQETFYRVSNM
inactive: SHP2 C-SH2 domain E139D 0.78 | [1] 0.666 | SHP2 N-SH2 domain L43F 0.763 | SHP2 N-SH2 domain T42A 0.713 | SHP2 N-SH2 domain T52S 0.557 | [2] 0.862

B13: ABHD12_Y345_A349T (peptide)
chain: LGRKLYSIATP
inactive: SHP2 C-SH2 domain E139D 0.736 | [1] 0.457 | SHP2 N-SH2 domain L43F 0.776 | SHP2 N-SH2 domain T42A 0.62 | SHP2 N-SH2 domain T52S 0.756 | [2] 0.753

B14: ACOT4_Y52_R57C (peptide)
chain: RAHARYCADAC
inactive: SHP2 C-SH2 domain E139D 1.08 | [1] 1.1 | SHP2 N-SH2 domain L43F 0.959 | SHP2 N-SH2 domain T42A 0.909 | SHP2 N-SH2 domain T52S 1.01 | [2] 1.02

B15: ABCD1_Y281_G277W (peptide)
chain: KWELRYMHSRV
inactive: SHP2 C-SH2 domain E139D 1.31 | [1] 1.41 | SHP2 N-SH2 domain L43F 1.35 | SHP2 N-SH2 domain T42A 1.29 | SHP2 N-SH2 domain T52S 1.45 | [2] 1.68

B16: ABL2_Y515_R519I (peptide)
chain: CPPKVYELMIA
inactive: SHP2 C-SH2 domain E139D 0.912 | [1] 0.84 | SHP2 N-SH2 domain L43F 0.93 | SHP2 N-SH2 domain T42A 0.727 | SHP2 N-SH2 domain T52S 0.924 | [2] 0.794

B17: ACTA1_Y168_V165M (peptide)
chain: HNMPIYEGYAL
inactive: SHP2 C-SH2 domain E139D 0.84 | [1] 0.947 | SHP2 N-SH2 domain L43F 0.692 | SHP2 N-SH2 domain T42A 0.701 | SHP2 N-SH2 domain T52S 0.902 | [2] 0.75

B18: ACP1_Y132_S137F_YF (peptide)
chain: IIEDPYFGNDF
inactive: SHP2 C-SH2 domain E139D 0.897 | [1] 0.942 | SHP2 N-SH2 domain L43F 0.843 | SHP2 N-SH2 domain T42A 0.993 | SHP2 N-SH2 domain T52S 0.976 | [2] 1.22

B19: ACOX1_Y275_M278V (peptide)
chain: SNKLTYGTVVF
active: SHP2 N-SH2 domain L43F 5.53 | SHP2 N-SH2 domain T42A 5.03 | SHP2 N-SH2 domain T52S 6.31
inactive: SHP2 C-SH2 domain E139D 1.2 | [1] 2.42 | [2] 2.49

B20: ACOXL_Y260_T255M (peptide)
chain: MIAIRYSHSRR
inactive: SHP2 C-SH2 domain E139D 0.243 | [1] 0.292 | SHP2 N-SH2 domain L43F 0.324 | SHP2 N-SH2 domain T42A 0.22 | SHP2 N-SH2 domain T52S 0.26 | [2] 0.291

B21: ACAT1_Y161 (peptide)
chain: MSNVPYVMNRG
inactive: SHP2 C-SH2 domain E139D 0.848 | [1] 0.704 | SHP2 N-SH2 domain L43F 0.851 | SHP2 N-SH2 domain T42A 0.6 | SHP2 N-SH2 domain T52S 0.726 | [2] 0.809

B22: ACAT1_Y90_N93S (peptide)
chain: EVKEAYMGSVL
inactive: SHP2 C-SH2 domain E139D 0.602 | [1] 0.579 | SHP2 N-SH2 domain L43F 0.66 | SHP2 N-SH2 domain T42A 0.614 | SHP2 N-SH2 domain T52S 0.566 | [2] 0.602

B23: ABL1_Y167_R166K (peptide)
chain: SISLKYEGRVY
inactive: SHP2 C-SH2 domain E139D 1.16 | [1] 1.09 | SHP2 N-SH2 domain L43F 1.06 | SHP2 N-SH2 domain T42A 0.938 | SHP2 N-SH2 domain T52S 1.03 | [2] 1.14

B24: ABL2_Y80_R78H (peptide)
chain: ALHHPYGCDVE
inactive: SHP2 C-SH2 domain E139D 1.26 | [1] 1.58 | SHP2 N-SH2 domain L43F 1.37 | SHP2 N-SH2 domain T42A 1.22 | SHP2 N-SH2 domain T52S 1.38 | [2] 1.33

B25: ACADM_Y353_YF (peptide)
chain: RRNTFYASIAK
inactive: SHP2 C-SH2 domain E139D 0.217 | [1] 0.156 | SHP2 N-SH2 domain L43F 0.321 | SHP2 N-SH2 domain T42A 0.277 | SHP2 N-SH2 domain T52S 0.228 | [2] 0.263

B26: ABL1_Y139_L140P (peptide)
chain: RNAAEYPLSSG
inactive: SHP2 C-SH2 domain E139D 0.709 | [1] 0.505 | SHP2 N-SH2 domain L43F 0.532 | SHP2 N-SH2 domain T42A 0.625 | SHP2 N-SH2 domain T52S 0.603 | [2] 0.546

B27: ACAD9_Y611_L606H (peptide)
chain: HEKRAYICAHP
inactive: SHP2 C-SH2 domain E139D 0.689 | [1] 0.795 | SHP2 N-SH2 domain L43F 0.765 | SHP2 N-SH2 domain T42A 0.821 | SHP2 N-SH2 domain T52S 1.01 | [2] 0.709

B28: ACADM_Y352 (peptide)
chain: GRRNTYYASIA
inactive: SHP2 C-SH2 domain E139D 0.271 | [1] 0.234 | SHP2 N-SH2 domain L43F 0.2 | SHP2 N-SH2 domain T42A 0.326 | SHP2 N-SH2 domain T52S 0.227 | [2] 0.222

B29: ABCD1_Y281_G277R (peptide)
chain: KRELRYMHSRV
inactive: SHP2 C-SH2 domain E139D 2.21 | [1] 1.79 | SHP2 N-SH2 domain L43F 1.82 | SHP2 N-SH2 domain T42A 1.54 | SHP2 N-SH2 domain T52S 2.21 | [2] 1.98

B30: ABCD1_Y281 (peptide)
chain: KGELRYMHSRV
inactive: SHP2 C-SH2 domain E139D 1.65 | [1] 1.44 | SHP2 N-SH2 domain L43F 1.37 | SHP2 N-SH2 domain T42A 1.18 | SHP2 N-SH2 domain T52S 1.23 | [2] 1.39

B31: ACTA1_Y168_A172G_YF (peptide)
chain: HNVPIYEGFGL
inactive: SHP2 C-SH2 domain E139D 1.47 | [1] 0.898 | SHP2 N-SH2 domain L43F 1.34 | SHP2 N-SH2 domain T42A 1.1 | SHP2 N-SH2 domain T52S 1.11 | [2] 0.954

B32: ABLIM1_Y439 (peptide)
chain: PSAEGYQDVRD
inactive: SHP2 C-SH2 domain E139D 0.522 | [1] 0.648 | SHP2 N-SH2 domain L43F 0.537 | SHP2 N-SH2 domain T42A 0.328 | SHP2 N-SH2 domain T52S 0.382 | [2] 0.654

B33: ACADM_Y352_YF (peptide)
chain: GRRNTYFASIA
inactive: SHP2 C-SH2 domain E139D 0.383 | [1] 0.241 | SHP2 N-SH2 domain L43F 0.298 | SHP2 N-SH2 domain T42A 0.309 | SHP2 N-SH2 domain T52S 0.388 | [2] 0.368

B34: ACAT1_Y331_A333P (peptide)
chain: PIAPVYAPSMV
inactive: SHP2 C-SH2 domain E139D 1.16 | [1] 1.04 | SHP2 N-SH2 domain L43F 0.917 | SHP2 N-SH2 domain T42A 0.774 | SHP2 N-SH2 domain T52S 0.967 | [2] 0.929

B35: ABCG8_Y209_V210M (peptide)
chain: RVGNMYMRGLS
inactive: SHP2 C-SH2 domain E139D 1.49 | [1] 1.17 | SHP2 N-SH2 domain L43F 1.17 | SHP2 N-SH2 domain T42A 1.25 | SHP2 N-SH2 domain T52S 0.809 | [2] 1.18

B36: ACSM1_Y477 (peptide)
chain: INASGYRIGPA
inactive: SHP2 C-SH2 domain E139D 0.799 | [1] 0.787 | SHP2 N-SH2 domain L43F 0.795 | SHP2 N-SH2 domain T42A 0.651 | SHP2 N-SH2 domain T52S 0.836 | [2] 0.868

B37: ABL2_Y515 (peptide)
chain: CPPKVYELMRA
inactive: SHP2 C-SH2 domain E139D 0.939 | [1] 0.934 | SHP2 N-SH2 domain L43F 1.06 | SHP2 N-SH2 domain T42A 0.75 | SHP2 N-SH2 domain T52S 1.06 | [2] 1.05
